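Briefly, cells in 96-well plates were exposed to five compound concentrations for 48 h, and endpoints were estimated by linear interpolation. GI50 marks 50% less growth.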 Active and inactive are the calls of the source. Cut-off read from the data, not from the text of the source: active = GI50 up to about 1.1 µM and inactive = higher.
system: NCI-H322M; assay: growth of human tumour cells (NCI), 48 h

| SMILES | GI50 |
| --- | --- |
| O=C1c2ccccc2C(O)(O)C1(O)C1(O)C(=O)c2ccccc2C1(O)O (stereo not given) | inactive: > 100 µM |
| O=C/C=C/c1ccco1 | inactive: > 100 µM |
| Cc1cccc2sc(-c3ccc(O)cc3)nc12 | inactive: 16.5 µM |
| CCOc1ccccc1NC(=O)C(=O)CC(=O)c1c(C)[n+]([O-])c2ccccc2[n+]1[O-] | inactive: 61.5 µM |
| C(CCCCc1nnc(N2CCCCC2)o1)CCCc1nnc(N2CCCCC2)o1 | inactive: > 100 µM |
| Cc1c2ccccc2c(C2C3C(=O)N(c4ccc(Br)cc4)C(=O)C3ON2C(C(N)=O)c2ccccc2)c2ccccc12 (stereo not given) | inactive: 18.6 µM |
| NC(=S)N/N=C1\CCc2ccccc2C1 | inactive: > 100 µM |
| CC(C)c1c(O[Si](C(C)C)(C(C)C)C(C)C)cc2c(c1O)CC[C@H]1C(C)(C)CCC[C@]21C | inactive: > 100 µM |
| C[C@@H](c1ccccc1)n1c(N)c(-c2ccccn2)c2ccc([N+](=O)[O-])cc2c1=O | inactive: 48.9 µM |
| COc1cc2c(cc1OC)-c1cc3ccccc3c[n+]1CC2 | inactive: > 100 µM |
| CC1OC(OC2C(OC(=O)[C@@H]3CC(C)(C)C[C@H]4C5=CC[C@@H]6[C@@]7(C)C[C@H](O)[C@H](OC8OC(CO)C(O)C(O)C8O)[C@@](C)(CO)[C@@H]7[C@H](O)C[C@@]6(C)[C@]5(C)CC[C@@]34C)OCC(O)C2O)C(O)C(O)C1O (stereo not given in full) | inactive: > 7.5 µM |
| COc1cccc(C(=O)N2CCc3ccccc32)c1OC | inactive: 90.2 µM |
| CC1=C(/C(C)=N/NC(=O)c2ccccc2O)C(C)C(/C(C)=N/NC(=O)c2ccccc2O)=C(C)N1 | inactive: 27 µM |
| CC1=C(C#N)C(=C(C#N)C#N)OC1(C)Cc1ccccc1 (stereo not given) | inactive: 56.9 µM |
| COC(=O)[C@]12CSCN1C(=O)C(C(C)=O)=NN2C(=O)[C@](OC)(c1ccccc1)C(F)(F)F | inactive: > 100 µM |
| Cc1ccc2c3ccc4c(c3n(C)c2c1)C(=O)C=CC4=O | inactive: > 10 µM |
| COc1cccc(C2c3cc4c(cc3OC(C)(N3CCCC3)C2C)OCO4)c1 (stereo not given) | inactive: 25.5 µM |
| CN(C)CCNC(=O)c1cccc2cc3ccc4ccccc4c3nc12 | active: 0.125 µM |
| Cc1cc(NCCCCCCNc2cc(C)nc3ccc(Cl)cc23)c2cc(Cl)ccc2n1 | inactive: 30.1 µM |
| CCc1c(C)[nH]c2c1/C(=N/N=C1\CCCc3[nH]c(C)c(CC)c31)CCC2 | inactive: 30.8 µM |
| O=c1[nH]c2c(c(=O)[nH]1)SSC2 | inactive: 15.5 µM |
| C=C(C)CNC(=S)N(N)c1ccc(OC)cc1 | inactive: > 100 µM |
| COC(=O)C12C34C=CC5(CCC6(C=CC1(CC3)O6)C52C(=O)OC)O4 (stereo not given) | inactive: > 100 µM |

| SMILES | GI50 |
| --- | --- |
| CCN1CCC(CNC(=O)c2ccc(N)cc2)N1CC (stereo not given) | inactive: > 100 µM |
| NCCCCCCn1c(-c2ccc(Br)cc2)cs/c1=N\c1ccccc1 | inactive: 13.1 µM |
| CCCCc1ccc(Nc2nc(Cl)c3ncn(COCCOC(C)=O)c3n2)cc1 | inactive: 17.2 µM |
| O=C1/C(=C\c2ccc(Br)cc2)CCCc2ccccc21 | inactive: 30.7 µM |
| COc1cc(C2c3cc4c(cc3[C@@H](NC3CCN(Cc5ccccc5)CC3)C3COC(=O)[C@H]23)OCO4)cc(OC)c1O (stereo not given in full) | inactive: 2.14 µM |
| C[N+](C)(C)/C=N\c1cccc2c1CCCC2 | inactive: > 100 µM |
| C[n+]1c(-c2ccc(/C=N/Nc3ccnc(N/N=C/c4ccc(-c5cn6ccsc6[n+]5C)cc4)n3)cc2)cn2ccsc21 | inactive: 20.2 µM |
| Cc1ccc(-c2sc(-c3ccc(C)cc3)c3c2C2CCC3C2)cc1 | inactive: > 50 µM |
| N#CCC(=O)Nc1ccccc1O | inactive: > 100 µM |
| O=C1NC(=O)C(=O)C(c2nc3ccccc3s2)C1=O | inactive: > 100 µM |
| O=C(Nc1ccc(F)cc1)c1cc2ccc(O)cc2o/c1=N\c1cccc(F)c1 | inactive: 26.5 µM |
| c1ccc2c(c1)C1CCCCCC21N1CCOCC1 (stereo not given) | inactive: > 100 µM |
| CN(C)CCNc1ccc2nnn3c4ccc(O)cc4c(=O)c1c23 | inactive: 1.71 µM |
| Cc1nc2nnc(C)n2c2c1C(=O)Nc1ccccc1N2 | inactive: > 100 µM |
| C[Si](C)(C)/C(Br)=C\CCN1C(=O)CCC1O (stereo not given) | inactive: > 100 µM |
| CCSCC(N)C(=O)O (stereo not given) | inactive: > 100 µM |
| CC(=O)OCC1OC(n2c3c(c(-c4cccc5ccccc45)c(C#N)c2=S)CCCC3)C(OC(C)=O)C(OC(C)=O)C1OC(C)=O (stereo not given) | inactive: > 100 µM |
| CC1C2CC=CC(=O)[C@@]2(C)CCC12OCCO2 (stereo not given in full) | inactive: > 100 µM |
| CCc1n[nH]c(=O)n1N1C(=O)C2CCCCC2C1=O (stereo not given) | inactive: > 100 µM |
| CCOC(=N)CC(=O)Nc1ccccc1 | inactive: 36.9 µM |
| O=C(c1ccc2c3c(ccc(C(=O)C(F)(F)F)c13)CC2)C(F)(F)F | inactive: 27.8 µM |
| c1cc(NC2=NCCO2)c2c(c1)OCO2 | inactive: > 100 µM |

— ChEMBL document CHEMBL1201862, “PubChem BioAssay data set” (2004)
